Experimental data: PMC4336329 (PLoS ONE, 2015)
Out of some 310,000 compounds screened, about 2,200 (0.71%) showed an effect of 50% or more. The effect is printed as a negative number. The list shows a part of the results.

What follows are compounds tested against human ether-à-go-go-related gene (hERG) potassium channel (human, UniProt Q12809) (assay: primary screen, population patch clamp on CHO cells stably expressing hERG).
Sequence of human ether-à-go-go-related gene (hERG) potassium channel (Q12809 whole entry, looked up): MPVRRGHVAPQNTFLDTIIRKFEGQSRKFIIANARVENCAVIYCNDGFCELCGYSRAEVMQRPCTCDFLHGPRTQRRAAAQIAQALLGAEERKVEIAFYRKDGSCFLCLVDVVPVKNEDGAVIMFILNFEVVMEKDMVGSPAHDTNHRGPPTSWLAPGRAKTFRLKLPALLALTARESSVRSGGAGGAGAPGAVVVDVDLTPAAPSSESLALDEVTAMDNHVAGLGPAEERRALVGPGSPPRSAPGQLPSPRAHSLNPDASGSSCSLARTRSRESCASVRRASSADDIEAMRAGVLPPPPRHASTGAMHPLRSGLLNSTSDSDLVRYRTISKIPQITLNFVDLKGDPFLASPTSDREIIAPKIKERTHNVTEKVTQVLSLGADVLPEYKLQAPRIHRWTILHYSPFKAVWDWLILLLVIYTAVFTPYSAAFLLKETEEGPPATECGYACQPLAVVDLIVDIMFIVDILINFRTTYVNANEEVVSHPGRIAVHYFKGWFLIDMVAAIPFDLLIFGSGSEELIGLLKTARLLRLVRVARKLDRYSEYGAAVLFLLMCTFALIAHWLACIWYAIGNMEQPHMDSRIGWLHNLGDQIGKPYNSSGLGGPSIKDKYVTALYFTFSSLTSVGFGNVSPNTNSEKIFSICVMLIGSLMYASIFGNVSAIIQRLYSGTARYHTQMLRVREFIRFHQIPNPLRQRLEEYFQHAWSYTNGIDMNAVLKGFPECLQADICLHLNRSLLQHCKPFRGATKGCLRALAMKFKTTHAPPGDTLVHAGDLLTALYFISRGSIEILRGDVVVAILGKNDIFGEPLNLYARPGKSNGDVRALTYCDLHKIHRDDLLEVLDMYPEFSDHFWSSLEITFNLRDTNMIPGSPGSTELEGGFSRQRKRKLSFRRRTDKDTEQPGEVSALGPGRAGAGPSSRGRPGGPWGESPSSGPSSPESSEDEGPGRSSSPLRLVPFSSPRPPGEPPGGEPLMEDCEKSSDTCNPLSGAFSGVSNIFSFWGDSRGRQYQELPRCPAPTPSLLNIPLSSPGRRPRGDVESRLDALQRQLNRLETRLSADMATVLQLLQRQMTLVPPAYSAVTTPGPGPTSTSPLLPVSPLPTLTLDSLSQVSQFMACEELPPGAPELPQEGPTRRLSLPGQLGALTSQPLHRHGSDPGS

| Compound | hERG current change (%, negative = inhibition) at 1uM [%] |
| --- | --- |
| NC(=O)c1c(NC(=O)CSc2nc3c(c(C(F)(F)F)n2)CCc2ccccc2-3)sc2c1CCCC2 | 1.55 |
| OC(c1ccc(Cl)cc1Cl)C(Cc1cccnc1)n1cncn1 (stereo not drawn) | -0.657 |
| Cc1ccc2nc(NC(=O)COC(=O)c3ccco3)sc2c1 | 15.9 |
| CC1(C)CC(=O)C=C(c2cccc3c2sc2ccccc23)C1 | 16.8 |
| O=C(Nc1nccs1)NC(C(F)(F)F)C(F)(F)F | 6.58 |
| CCCCN(C)C(=O)Cn1nc(Cc2ccncc2)c2ccccc2c1=O | 5.07 |
| Cc1nc(SCC(=O)N(CC(C)C)C2CCS(=O)(=O)C2)c2c(C)c(C)sc2n1 (stereo not drawn) | 5.63 |
| CN(C)S(=O)(=O)c1cccc(C(=O)Nc2ccccc2[N+](=O)[O-])c1 | 12.1 |
| CC(C)CN1C(=O)C(=O)N(CC(=O)c2ccc[nH]2)C1=O | 14.2 |
| CCC(=O)N1CC(=O)Nc2ccc(Br)cc2C1c1ccccc1 (stereo not drawn) | 1.55 |
| O=C1CC(c2ccco2)Cc2nc(N3CCc4ccccc4C3)ncc21 (stereo not drawn) | 6.33 |
| COC(=O)CN1C(c2ccccc2)=Nc2ccc(Cl)cc2C1c1ccccc1 (stereo not drawn) | -17.3 |
| CCCCOc1ccc(C(O)C(CN2CCCCC2)c2ccccc2)cc1 (stereo not drawn) | -0.643 |
| O=C(NC(=S)N(CCCCO)C1CCCCC1)c1sc2ccccc2c1Cl | -0.926 |
| O=C(NCCS(=O)(=O)N1CCCC1)c1ccccc1 | 9.78 |
| COC(=O)c1nnn(-c2cccc(Cl)c2)c1C(=O)OC | 9.98 |
| O=C(Nc1nccs1)C(Br)C(Br)c1ccccc1 (stereo not drawn) | 13.9 |
| O=C(CC(C(=O)O)C1CCCO1)NCc1ccccc1 (stereo not drawn) | 4.29 |
| CC(=O)Cc1nsc(NC(=O)c2oc(-c3ccccc3Cl)cc2C)n1 | 11.9 |
| CC(=O)N(CCC(c1ccco1)C(C)C)Cc1ccc(Cl)cc1 (stereo not drawn) | -3.97 |
| Cc1cccc(CSc2nnc(N)n2-c2ccccc2)c1 | -4.62 |
| O=C1Nc2cc(Cl)c(Cl)cc2N(O)N1c1cccc(Cl)c1 | 16.2 |
| CSc1ncccc1C(=O)Nc1ccc(S(=O)(=O)Nc2nccs2)cc1 | 6.85 |

| Compound | hERG current change (%, negative = inhibition) at 1uM [%] |
| --- | --- |
| COc1ccc(OC)c2sc(N(CCCN(C)C)C(=O)CCS(=O)(=O)c3ccccc3)nc12.Cl | -29.7 |
| COc1ccc(NS(=O)(=O)c2cc(NC(=O)c3ccccc3F)ccc2N2CCCC2)cc1 | 16.3 |
| CC(=O)C1=C(O)C(=O)N(Cc2ccco2)C1c1ccccc1F (stereo not drawn) | 10 |
| Cc1nc(SCC(=O)c2ccc(F)cc2)n[nH]1 | 12.4 |
| Cc1ccc(S(=O)(=O)N(C)C)cc1NC(=S)NC(C)CCCC(C)C (stereo not drawn) | 8.26 |
| c1csc(-c2nn3c(Cn4cnc5ccccc54)nnc3s2)c1 | 12.6 |
| CC#CC(=O)N1CCC(n2nccc2NC(=O)c2ccc3c(c2)OCO3)CC1 | -10.2 |
| CCCc1nc2c(nnn2Cc2ccccc2Cl)c(=O)[nH]1 | 36.2 |
| Cc1cccc(C)c1NC(=O)NN=C1CCCCC1 | 13.8 |
| Cc1cc(C)cc(C(=O)NCCCc2ccccc2)c1 | 12.3 |
| COc1ccccc1CNC(=O)C1CCN(C(=O)NC2CCCCC2)CC1 | 10.7 |
| O=C(CSCc1ccc(Br)cc1)NCCc1ccccc1 | 9.23 |
| CC(C(=O)Nc1ccc(N2CCOCC2)cc1)N1C(=O)NC(C)(C)C1=O (stereo not drawn) | 15.8 |
| O=C(c1ccc(-c2cccc(C(F)(F)F)c2)o1)N1CCOCC1 | -3.27 |
| Cc1ccc(C)c(NC(=O)CCC(=O)N/N=C/c2ccc3c(c2)OCO3)c1 | 13.4 |
| C/C(=N\Nc1ccc(Cl)c(C(=O)O)c1)c1ccc[nH]1 | 6.73 |
| COc1ccc(CCC(=O)OCC(=O)N(C)c2c(N)n(Cc3ccccc3)c(=O)[nH]c2=O)cc1 | 14.7 |
| O=C(NC1CCSc2ccccc21)c1cccc(OC(F)F)c1 (stereo not drawn) | 13.9 |
| COC(=O)C(Cc1ccccc1)OS(N)(=O)=O (stereo not drawn) | 14.1 |
| CC(=O)N1CCN(C(=O)COc2ccccc2C(=O)Nc2ccccc2)CC1 | -0.641 |
| CCOC(=O)c1cc2c(=O)n3ccccc3nc2n(Cc2ccco2)c1=NC(=O)c1ccccc1OC | -6.81 |
| COc1ccc(C2/C=C\CN(C(=O)C3CC3)CC(=O)N2Cc2ccc(F)cc2)cc1 (stereo not drawn) | 5.2 |
| CC1CC(C)CN(C(=O)CNC(=O)c2sc3ccccc3c2Cl)C1 (stereo not drawn) | -2.61 |

| Compound | hERG current change (%, negative = inhibition) at 1uM [%] |
| --- | --- |
| Cc1cccc(NS(=O)(=O)c2cccc(C(=O)NCC(C)(C)N3CCOCC3)c2)c1 | 4.12 |
| COc1ccc(S(=O)(=O)N2CCCC2C(=O)Nc2ccc(O)cc2)cc1 (stereo not drawn) | 7.62 |
| CCOc1ccc2ncc(S(=O)(=O)c3ccccc3)c(N3CCC4(CC3)OCCO4)c2c1 | 8.7 |
| NNC(=O)c1ccc(Cn2cc(Br)cn2)o1 | 10.4 |
| O=NC1=C(c2c(O)[nH]c3ccccc23)CCCC1 | 3.23 |
| Cl.N#Cc1cccc(C(c2nnnn2C2CCCC2)N2CCCCCC2)c1 (stereo not drawn) | -4.35 |
| O=C(CSc1ccc(-c2ccc(Cl)cc2)nn1)N1CCCc2ccccc21 | 9.22 |
| COC(=O)c1ccc(N/C=C\C(=O)c2ccc3c(c2)OCO3)cc1 | 12.3 |
| CN(C)c1ccc(NC(=O)CN2CCN(S(=O)(=O)c3cc(Cl)ccc3Cl)CC2)cc1 | 10 |
| COc1cc2cc(CN(Cc3cccnc3)C(=O)Nc3ccccc3F)c(=O)[nH]c2cc1OC | 10.7 |
| C=C(C)COc1ccc(-c2[nH]ncc2Oc2cccc(OC)c2)c(O)c1 | 5.36 |
| CC(C)c1nc(N2CCOCC2)c(C#N)c2c1CCCC2 | 12.6 |
| N#CCSc1nnc(-c2cccnc2)n1-c1ccccc1 | 0.0664 |
| COc1ccc(NS(=O)(=O)c2cccc(C(=O)NCCCN3CCOCC3)c2)cc1 | 18.1 |
| CCOC(=O)c1cnc(-c2ccccc2)nc1N1CC(C)OC(C)C1 (stereo not drawn) | 5.14 |
| CCn1c(COc2cccc(C)c2)nnc1SCC(=O)Nc1cccc(C(=O)O)c1 | 4.22 |
| COc1ccccc1CNC(=O)c1ccc(N2CCOCC2)c([N+](=O)[O-])c1 | 14.1 |
| COc1ccc(C(=O)NCCCn2ccnc2)cc1[N+](=O)[O-] | 3.98 |
| O=C(NCCc1ccc2c(c1)OCCO2)c1ccc(F)cc1 | 7.64 |
| N#CC(C#N)=NNc1ccc(S(=O)(=O)N2CCCC2)cc1 | -2.92 |
| COc1ccc([C@H]2CC(=O)C=C(c3ccc(Cl)c(C(F)(F)F)c3)C2)cc1OC | 13.9 |
| CCCCn1c(N)c(C(=S)NC(=O)CC(C)(C)C)c(=O)n(C)c1=O | 11.1 |
| O=C(Nc1ncnc2sc3c(c12)CCCC3)c1ccncc1 | 14.9 |

| Compound | hERG current change (%, negative = inhibition) at 1uM [%] |
| --- | --- |
| COC(=O)c1cc(CSc2nc3ccccc3c(=O)n2C)oc1C | 14.5 |
| N#CCC(=O)Nc1ncc(Cc2ccccc2Cl)s1 | 10.9 |
| CCOC(=O)c1cc(-c2ccco2)nc2c1c(C)nn2CCC#N | 1.22 |
| CCCCC(c1nnnn1CC1CCCO1)N1CCN(c2ccccc2)CC1.Cl (stereo not drawn) | 13.8 |
| CCOC(=O)C(C(=O)NCc1ccc(F)cc1)c1ncc(C(F)(F)F)cc1Cl (stereo not drawn) | 8.18 |
| O=C(NCc1cccs1)c1cc2c(s1)CS(=O)(=O)C2 | 11.8 |
| Cc1cc(NC(=O)C2CC(=O)N(c3ccc(Cl)cc3)C2)no1 (stereo not drawn) | 1.83 |
| CCOC(=O)CN(C(=O)CNC(=O)c1cccs1)C(C(=O)NC1CCCCC1)c1cccnc1 (stereo not drawn) | 16.8 |
| COc1ccc(NC2c3ccccc3C(=O)N2Cc2ccccc2Cl)cc1OC (stereo not drawn) | 0.0007 |
| CC(C)(C)C(=O)N1CCN(c2ccc([N+](=O)[O-])cc2-n2cccc2)CC1 | -11 |
| Cc1ccc(S(=O)(=O)N2CCCOC2CNC(=O)C(=O)NC2CCCCC2)cc1 (stereo not drawn) | 8.66 |
| CCC1Sc2ccccc2N(CC(=O)NCc2ccccc2OC)C1=O (stereo not drawn) | -3.35 |
| Cc1onc(-c2ccccc2)c1C(=O)N1CCCSC1=Nc1ccccc1 | 14.6 |
| O=C(CCCOc1ccc(Cl)cc1)Nc1cccc(C(=O)O)c1 | 13.4 |
| CSc1c(C#N)sc(=S)n1-c1ccc(C)cc1 | 2.35 |
| Cc1cc(C)c2cc(C#N)c(NCCNC(=S)NCCCN3CCOCC3)nc2c1 | -3.05 |
| Cc1cc(C(=O)COC(=O)c2ccccc2NCCO)c(C)n1CC1CCCO1 (stereo not drawn) | 2.47 |
| CC(=O)N1CCN(c2cccc(C)c2C)CC1 | 1.34 |
| COc1ccc(OCC(=O)N/N=C(\C)c2ccc(-n3ccnc3)cc2)cc1 | 0.479 |
| Cc1ccnc(N2CCC(C(=O)NCc3ccc(F)cc3)CC2)n1 | -2.26 |
| Cc1cc(/C=C(\C#N)C(=O)Nc2ccc(Cl)cc2)c(C)n1-c1ccc(N2CCOCC2)c([N+](=O)[O-])c1 | 11.6 |
